Some of the results follow.
target: T1, OsWOX13 (Oryza sativa, UniProt Q5QMM3 1-267); assay: protein-binding microarray (RPBM); PBS, 2% BSA, 51.3 ng/ul salmon testes DNA, 50 uM zinc acetate, 200 nM TF, 25 C, 1 h; high values mean tight binding; conditions: protein: recombinant; tags: N-terminal polyhistidine and DsRed monomer fusion (pET32a); label: CyDye5-dUTP incorporated in the synthesized complementary strand; 3' TTTTT single-stranded linker to array surface; dsDNA, one strand shown
T1 sequence: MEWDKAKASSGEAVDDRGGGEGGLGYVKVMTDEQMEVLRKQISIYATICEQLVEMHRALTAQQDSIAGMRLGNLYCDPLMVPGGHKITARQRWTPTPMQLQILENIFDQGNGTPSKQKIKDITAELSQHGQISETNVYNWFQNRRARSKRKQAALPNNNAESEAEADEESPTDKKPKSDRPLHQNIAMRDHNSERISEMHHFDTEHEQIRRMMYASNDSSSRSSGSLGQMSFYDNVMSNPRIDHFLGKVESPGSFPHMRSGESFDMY
Method in brief: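 Polyhistidine-tagged DsRed fusions of transcription factors, joined at the N-terminus, were expressed in E. coli BL21-CodonPlus and isolated on Ni–NTA. They were incubated at 200 nM for 1 h at 25 °C on a custom Agilent array, double-stranded and BSA-blocked, in PBS with 2% BSA, salmon testes DNA and 50 µM zinc acetate. The binding signal is per-feature fluorescence intensity (arbitrary units) read on an Axon 4000B scanner after washing.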

| Sequence | binding signal |
| --- | --- |
| TCACCAATCATGACAAACAACGGCACCACGCAACTAAGAACGGAGTCACCTAGTGCAG | 12400 fluorescence intensity (a.u.) |
| AAGATTGCCAGTTGATATGCGGGGTCTACATGGGTCCCACCGGAGTCACCTAGTGCAG | 19200 fluorescence intensity (a.u.) |
| GGTTAATTTATTTTGAGACAGATGGAGTAACTCAATGAGCCGGAGTCACCTAGTGCAG | 41300 fluorescence intensity (a.u.) |
| ATAACGAACGGATGAGATTGATCGCTACAATACTCTAGAGCGGAGTCACCTAGTGCAG | 4050 fluorescence intensity (a.u.) |
| GGAGAGTGATTTAAATCTGAAAAGAAGTAAGATCTCTTTCCGGAGTCACCTAGTGCAG | 8610 fluorescence intensity (a.u.) |
| GGCTGATTGTGTAATAAAGCCCCGTCTGCAGGCGGCGGACCGGAGTCACCTAGTGCAG | 34500 fluorescence intensity (a.u.) |
| CTAATTGAATAATCAAAATTTTAATCTTTGGTCGATAATGCGGAGTCACCTAGTGCAG | 63700 fluorescence intensity (a.u.) |
| GGCATTTGATCTAATCCCATTTTGACGATGATATTATAACCGGAGTCACCTAGTGCAG | 3500 fluorescence intensity (a.u.) |
| TAAATTGAATTTAAACTTACATGTTTTCTAGACTAATATACGGAGTCACCTAGTGCAG | 8580 fluorescence intensity (a.u.) |
| TTTAATTAATCATGTGCTAATAACTTGTCTCGTTTGGTGTCGGAGTCACCTAGTGCAG | 42900 fluorescence intensity (a.u.) |
| TCTGATATTTGATAGTGACATTAATCAATCTTTACTCCATCGGAGTCACCTAGTGCAG | 7140 fluorescence intensity (a.u.) |
| TCTACAAAATGATTAGTTTTAGATAAGCTGAACTTTAGAACGGAGTCACCTAGTGCAG | 4530 fluorescence intensity (a.u.) |
| AAGATAAATAAAATTAATGGTTAGAGGTTTTGTTGTCTCACGGAGTCACCTAGTGCAG | 3410 fluorescence intensity (a.u.) |
| ACCGTTGATTTAGAAAGGGGTTGAGGGGAGGGTAGTAGTACGGAGTCACCTAGTGCAG | 17400 fluorescence intensity (a.u.) |
| GCACGTTAATTATGCATACAACAACAGTGATCCAAGTTAGCGGAGTCACCTAGTGCAG | 17900 fluorescence intensity (a.u.) |
| CATTAATTTGGAGTATTAAACATAGACTACTTACAAAACTCGGAGTCACCTAGTGCAG | 14000 fluorescence intensity (a.u.) |
| ATAGATTTTAGTTAGATGATGGTTGTCAATCTTCACTTGGCGGAGTCACCTAGTGCAG | 11200 fluorescence intensity (a.u.) |
| TAGATGATTATTATGATAGGATTGATTTGTTTAGAGTCTTCGGAGTCACCTAGTGCAG | 46100 fluorescence intensity (a.u.) |
| ATACCTAATCAACGTGTCATTTTGTGCCCCTATCACGGAACGGAGTCACCTAGTGCAG | 12100 fluorescence intensity (a.u.) |
| CGTTAACGTGAGCTATCAACAATCTATCACGTCACACTATCGGAGTCACCTAGTGCAG | 6870 fluorescence intensity (a.u.) |
| TTTAATTTATCAGGTCTATCTGACTGTTCAGCACATACCACGGAGTCACCTAGTGCAG | 17600 fluorescence intensity (a.u.) |
| CATATTTGTACAAATTGACCACCAGAGCTCACACATTGATCGGAGTCACCTAGTGCAG | 4710 fluorescence intensity (a.u.) |
| CTCACTTCCACTAATCACACTCTACAGTCTCACTCCTAGACGGAGTCACCTAGTGCAG | 3600 fluorescence intensity (a.u.) |
| GGACACCCCAATCAGACGTCAACTGTACACTGGAAACACCCGGAGTCACCTAGTGCAG | 3290 fluorescence intensity (a.u.) |
| ATATTTAATTTGATACTACCTATAAACCGCACAAGCTGCACGGAGTCACCTAGTGCAG | 16800 fluorescence intensity (a.u.) |
| TATGCTGATTGAAATCATTCCCATGCAAAAGGGTGCAGTGCGGAGTCACCTAGTGCAG | 48000 fluorescence intensity (a.u.) |
| TAGCGTATAATTAATTAAGTATCATTTATCTATATGTTTTCGGAGTCACCTAGTGCAG | 23200 fluorescence intensity (a.u.) |

| Sequence | binding signal |
| --- | --- |
| GAATATAATACAATTATAATGTAATTATAGTGTATACGTACGGAGTCACCTAGTGCAG | 5420 fluorescence intensity (a.u.) |
| AGCTAGCTAATTACATGTAAATTAGGGATTTGTTCTTGATCGGAGTCACCTAGTGCAG | 22300 fluorescence intensity (a.u.) |
| CACTGCTAAGTGAAGGTTAATTGGACGTAAAACTTGAAACCGGAGTCACCTAGTGCAG | 4160 fluorescence intensity (a.u.) |
| TTGATTAACATGATTCGTCGTAGGTGTTCAAGTACGCTGACGGAGTCACCTAGTGCAG | 35000 fluorescence intensity (a.u.) |
| TGCCAGTGACAGCGTAATTAACGACTTAATCACACTGTTTCGGAGTCACCTAGTGCAG | 28600 fluorescence intensity (a.u.) |
| ATATTGTGATGTCTTATTGATATGACACCATAGACACTGCCGGAGTCACCTAGTGCAG | 3330 fluorescence intensity (a.u.) |
| GGCGTGTGATTTGGGCGGAGGGATCCGGCGATCTGGTTCTCGGAGTCACCTAGTGCAG | 5540 fluorescence intensity (a.u.) |
| CTAAAATTAATCCTAAAATCAAAATCAACCTTAATGTAGTCGGAGTCACCTAGTGCAG | 6850 fluorescence intensity (a.u.) |
| TAGTAATTGATTGCTGCCAAGATTACATTACTGCCCAATACGGAGTCACCTAGTGCAG | 65500 fluorescence intensity (a.u.) |
| CTCGGTAAATTAAAACACTGGTCATCAAACGAGTCTTGAGCGGAGTCACCTAGTGCAG | 3660 fluorescence intensity (a.u.) |
| ACGATTGGATTGGATTCGACTCGACTCAAGAAAAGAAAAGCGGAGTCACCTAGTGCAG | 7300 fluorescence intensity (a.u.) |
| ACTAATAGTAATTAGCTAGATGATTAACTAATTTACCTGGCGGAGTCACCTAGTGCAG | 38700 fluorescence intensity (a.u.) |
| TATATATATATATATATATATATATATATATGGTGGTGTTCGGAGTCACCTAGTGCAG | 25600 fluorescence intensity (a.u.) |
| AATTTGAGTGATTTTGTACATTAGATACCATGGTGCCCGGCGGAGTCACCTAGTGCAG | 16800 fluorescence intensity (a.u.) |
| AATAATTCCGTGACTATAATTAGAAAATAATGGGCCTTAACGGAGTCACCTAGTGCAG | 12900 fluorescence intensity (a.u.) |
| ATTACGCTAATTGAGATGGACGTGCTATAAAATTTTCGAGCGGAGTCACCTAGTGCAG | 29400 fluorescence intensity (a.u.) |
| TTAACTTGCAGTCCTAATTGTAACTGCATTTGATCTCAATCGGAGTCACCTAGTGCAG | 3380 fluorescence intensity (a.u.) |
| AGAGTTTCTGATTGGATAACTCTTGGAAATTCATGCTGCCCGGAGTCACCTAGTGCAG | 22000 fluorescence intensity (a.u.) |
| GTGCTCTAATTATTTGTATCTTACAGATAGATGACAGAGCCGGAGTCACCTAGTGCAG | 19100 fluorescence intensity (a.u.) |
| AATGATAATTACGTAAATTATTTGAATGACACGAATAGTTCGGAGTCACCTAGTGCAG | 28000 fluorescence intensity (a.u.) |
| TCGCTTAATTAATTTGGATTTGGATGCGGATCCCTCGCCTCGGAGTCACCTAGTGCAG | 56000 fluorescence intensity (a.u.) |
| GGAATTGTTAATTACTATGTTTGGAGCTCTGGTGACCGATCGGAGTCACCTAGTGCAG | 17200 fluorescence intensity (a.u.) |
| AGTAAGGCTAATTAATACTATAATATCTTATTGGCATCCTCGGAGTCACCTAGTGCAG | 3370 fluorescence intensity (a.u.) |
| CTAGATTGTTTTACAGTTTCAACATAAACACCAGAAGGCTCGGAGTCACCTAGTGCAG | 26300 fluorescence intensity (a.u.) |
| TGCACAGATTAATCTTAAATGGTTTATAAGAATTACAGCTCGGAGTCACCTAGTGCAG | 5500 fluorescence intensity (a.u.) |
| GCAAAATTACTGCTCGTCAATATATTAGAAGAAAATAGTTCGGAGTCACCTAGTGCAG | 3980 fluorescence intensity (a.u.) |
| TGTTTGCATGATTTTGTAATTGTGTTGTATCCGGTTTTCCCGGAGTCACCTAGTGCAG | 5700 fluorescence intensity (a.u.) |
